Measured values as given in PubChem BioAssay AID504333 (National Center for Advancing Translational Sciences (NCATS), 2011).
The whole screen tested about 360,000 compounds, of which about 16,000 (4.4%) were called active. This list was built around the results that the source calls inconclusive (neither active nor inactive); the mix of calls is not that of the screen. The call rests on the fitted dose curve; in most records, active means well fitted inhibition curve with a large enough effect; inconclusive means small, poorly fitted or top-dose-only effect; inactive means no such curve, though single readings can be large or run the other way. Potencies beside an inconclusive call are fits to weak or partial responses and may not hold up.

target: Bromodomain adjacent to zinc finger domain protein 2B (Homo sapiens) (UniProt Q9UIF8); assay: qHTS Assay for Inhibitors of BAZ2B; details: AlphaScreen BAZ2B-H3K14Ac peptide displacement; activity change, negative = inhibition: at 114 µM (top of the series) unless noted; further: nearly all actives have a fitted effect of over 60% in size
Method in brief: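 AlphaScreen luminescence quantifies BAZ2B engagement of H3K14Ac peptide; the protein and biotinylated peptide are both at 50 nM final, buffer PBS pH 7.4 with 0.01% Tween-20, all steps at room temperature.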
On the % scale 0 is the no-effect control and ±100 the full control effect; potency means the concentration at half of the fitted maximal effect; tags describe the fitted curve by direction and shape.

Chain of UniProt Q9UIF8 (Q9UIF8 whole entry, looked up, the tested form may be a part): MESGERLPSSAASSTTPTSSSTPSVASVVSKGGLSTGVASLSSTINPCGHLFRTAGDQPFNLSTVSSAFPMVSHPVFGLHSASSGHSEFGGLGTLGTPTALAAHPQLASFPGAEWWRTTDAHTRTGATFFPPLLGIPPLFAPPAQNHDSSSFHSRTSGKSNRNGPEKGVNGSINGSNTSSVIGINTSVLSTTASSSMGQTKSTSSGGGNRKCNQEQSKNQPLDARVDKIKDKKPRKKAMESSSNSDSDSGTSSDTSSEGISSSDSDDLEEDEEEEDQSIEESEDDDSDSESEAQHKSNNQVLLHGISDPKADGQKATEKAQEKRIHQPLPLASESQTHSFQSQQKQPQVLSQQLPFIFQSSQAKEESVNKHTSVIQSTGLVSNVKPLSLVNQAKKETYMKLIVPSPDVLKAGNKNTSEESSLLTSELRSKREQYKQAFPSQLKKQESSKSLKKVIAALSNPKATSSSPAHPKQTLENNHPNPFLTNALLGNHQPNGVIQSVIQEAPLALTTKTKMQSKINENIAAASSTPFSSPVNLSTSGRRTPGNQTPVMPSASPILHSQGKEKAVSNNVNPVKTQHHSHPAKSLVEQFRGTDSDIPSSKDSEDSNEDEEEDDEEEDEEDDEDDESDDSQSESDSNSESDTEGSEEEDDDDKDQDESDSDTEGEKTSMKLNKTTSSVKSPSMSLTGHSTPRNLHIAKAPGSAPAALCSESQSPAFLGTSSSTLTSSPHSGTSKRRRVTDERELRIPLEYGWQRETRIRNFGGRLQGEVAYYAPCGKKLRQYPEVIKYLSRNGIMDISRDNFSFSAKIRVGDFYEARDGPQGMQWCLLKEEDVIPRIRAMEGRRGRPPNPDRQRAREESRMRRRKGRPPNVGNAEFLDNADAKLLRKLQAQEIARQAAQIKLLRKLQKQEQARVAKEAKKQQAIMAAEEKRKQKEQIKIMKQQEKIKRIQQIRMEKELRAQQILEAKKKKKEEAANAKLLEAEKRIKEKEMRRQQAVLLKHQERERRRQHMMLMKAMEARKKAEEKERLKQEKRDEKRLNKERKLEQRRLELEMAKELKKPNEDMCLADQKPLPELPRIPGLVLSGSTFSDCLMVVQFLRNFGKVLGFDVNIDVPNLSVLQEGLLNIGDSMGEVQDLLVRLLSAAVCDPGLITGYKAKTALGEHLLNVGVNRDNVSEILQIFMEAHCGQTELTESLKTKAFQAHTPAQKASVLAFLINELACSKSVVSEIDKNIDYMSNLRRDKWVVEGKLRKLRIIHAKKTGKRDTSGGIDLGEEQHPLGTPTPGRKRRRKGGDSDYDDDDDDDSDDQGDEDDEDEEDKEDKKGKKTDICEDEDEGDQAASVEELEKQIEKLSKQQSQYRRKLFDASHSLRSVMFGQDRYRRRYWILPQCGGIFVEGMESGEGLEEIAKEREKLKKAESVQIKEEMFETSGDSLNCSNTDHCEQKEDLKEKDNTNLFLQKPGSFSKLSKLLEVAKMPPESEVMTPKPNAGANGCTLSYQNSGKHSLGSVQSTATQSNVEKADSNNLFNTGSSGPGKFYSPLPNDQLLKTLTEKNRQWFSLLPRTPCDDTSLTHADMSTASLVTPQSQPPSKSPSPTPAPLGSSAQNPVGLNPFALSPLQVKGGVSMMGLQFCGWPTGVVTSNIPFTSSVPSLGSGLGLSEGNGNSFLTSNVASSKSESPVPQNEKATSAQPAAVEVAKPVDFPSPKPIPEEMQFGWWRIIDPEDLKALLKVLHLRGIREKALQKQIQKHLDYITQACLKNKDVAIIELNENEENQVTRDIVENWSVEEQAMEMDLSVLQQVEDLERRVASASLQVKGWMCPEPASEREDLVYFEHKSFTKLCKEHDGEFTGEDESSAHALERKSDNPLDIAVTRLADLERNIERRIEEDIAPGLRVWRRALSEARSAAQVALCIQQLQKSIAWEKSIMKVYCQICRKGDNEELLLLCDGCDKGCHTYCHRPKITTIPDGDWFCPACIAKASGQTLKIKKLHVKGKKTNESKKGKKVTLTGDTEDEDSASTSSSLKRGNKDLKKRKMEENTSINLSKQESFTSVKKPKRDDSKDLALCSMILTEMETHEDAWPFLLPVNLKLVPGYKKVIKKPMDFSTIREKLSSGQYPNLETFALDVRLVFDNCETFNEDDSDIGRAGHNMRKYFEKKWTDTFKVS

Compound | Potency | activity change, negative = inhibition
CCN(c1ccc(NC(=O)COC(=O)c2ccc(C)c(S(=O)(=O)N3CCOCC3)c2)cc1)C(C)C | inconclusive: 11.2 µM [inhibitor, full curve] | –
NNS(=O)(=O)c1ccc(N2CCCC2=O)c([N+](=O)[O-])c1 | – | inactive: -17.1%
CC1CCN(c2ccc(NC(=O)Cc3ccccc3)cc2)CC1 | – | inactive: -4.08%
Cc1ccc2nc(NC(=O)C3CCCN(S(=O)(=O)c4cnc[nH]4)C3)sc2c1 (configuration not stated) | – | inactive: 8.51%
COc1cccc(/C=C2\C(=O)C(=O)c3ccccc32)c1 | inconclusive: 89.1 µM [inhibitor, single point] | –
CC(=O)c1ccc(NC(=O)c2nc(-c3ccc(Cl)cc3)n3c2CCCCC3)cc1 | inconclusive: 14.1 µM [inhibitor, partial curve] | –
Cc1ccc(CN2CCSc3ccc(C(=O)NCc4ccccn4)cc32)cc1 | inconclusive: 50.1 µM [inhibitor, partial curve] | –
Cc1cc(C)nc(SCCn2c(N(C)Cc3ccccc3)nc3c2c(=O)n(C)c(=O)n3C)n1 | inconclusive: 100 µM [inhibitor, single point] | –
NNC(=S)NCc1ccc2c(c1)OCO2 | inconclusive: 89.1 µM [inhibitor, single point] | –
O=C(NCCc1ccccc1)c1ccc2c(c1)N(Cc1ccc(F)cc1Cl)C(=O)CS2 | – | inactive: 1.28%
CCc1ccc(OC(=O)CSc2nnc(-c3ccc(OC)c(OC)c3)o2)cc1 | inconclusive: 89.1 µM [inhibitor, single point] | –
COc1ccc(-n2ccnc2SCC(=O)NCc2ccc3c(c2)OCO3)cc1 | inconclusive: 79.4 µM [inhibitor, single point] | –
O=C(NCc1ccc(Cl)cc1)C1CCC(=O)N(C2CCCCCC2)C1 (configuration not stated) | – | inactive: 2.41%
O=C(O)c1ccc2c(c1)C(=O)N(c1ccc(/C=C/C(=O)c3ccccc3)cc1)C2=O | inconclusive: 63.1 µM [inhibitor, partial curve, poor fit] | –
CCCN(C(=O)CCc1nc(-c2ccc(C)cc2)no1)c1ccc(OCC)cc1 | – | inactive: 68.5%
Nc1nc(-c2ccccc2)c(N=Nc2ccc(Cl)cc2)s1 | inconclusive: 8.91 µM [inhibitor, full curve] | –
COc1ccc(Nc2c(-c3ccc(OC)cc3)nc3cnccn23)cc1 | inconclusive: 50.1 µM [inhibitor, partial curve] | –
Cc1ccc2[nH]cc(CCNS(=O)(=O)c3ccc(F)cc3)c2c1 | inconclusive: 79.4 µM [inhibitor, single point] | –
O=C1Nc2ccccc2/C1=C/c1ccccc1Cl | – | inactive: -30.4%
O=C(NCc1ccco1)c1cc2sccc2n1Cc1ccccc1 | inconclusive: 89.1 µM [inhibitor, single point] | –
O=C(O)c1cc(C(=O)O)cc(-c2ccc(/C=c3/sc4nc5ccccc5n4c3=O)o2)c1 | active: 20 µM | –
CCc1cccc(NC(=O)CSc2nnc(-c3cc4occc4n3C)n2-c2ccccc2C)c1 | inconclusive: 28.2 µM [inhibitor, full curve] | –
N=c1c2c(-c3ccccc3)c(-c3ccccc3)n(Cc3ccco3)c2ncn1CCN1CCOCC1 | inconclusive: 39.8 µM [inhibitor, partial curve] | –
O=c1[nH]c(N/N=C\c2ccc3c(c2)OCO3)nc2ccccc12 | – | inactive: -24.6%

Compound | Potency | activity change, negative = inhibition
Cc1cc(C=C2C(=O)c3ccccc3C2=O)c(C)n1-c1ccc(C(=O)O)cc1 | inconclusive: 56.2 µM [inhibitor, partial curve] | –
CNC(=S)N1CCN=C1Nc1nc(C)cc(C)n1 | – | inactive: -31.3%
c1ccc(-n2cnc3cc(NCc4ccncc4)ccc32)cc1 | inconclusive: 50.1 µM [inhibitor, partial curve] | –
O=C(NC1=NCCS1)C12CC3CC(C1)CC(C(=O)NC1=NCCS1)(C3)C2 | active: 50.1 µM | –
COc1ccc(N2CCN(C(=O)CNS(=O)(=O)c3ccc(C)cc3)CC2)cc1 | inconclusive: 89.1 µM [inhibitor, single point] | –
COc1ccc2c(c1)c(=O)oc1c(C)c(OCc3cc(C(=O)O)oc3C)ccc12 | inconclusive: 89.1 µM [inhibitor, single point] | –
COc1cc(O)c(C(CCN2CCN(c3ccccc3)CC2)c2cc(OC)c(OC)c(OC)c2)c(OC)c1 (configuration not stated) | inconclusive: 50.1 µM [inhibitor, partial curve] | –
Oc1ccc(/C=N/n2c(COc3ccccc3)n[nH]c2=S)cc1O | inconclusive: 31.6 µM [inhibitor, partial curve] | –
Cc1ccc(Nc2c3c(nc4nncn24)CCC3)c(C)c1 | – | inactive: 5.5%
Cc1ccc2oc(C(=O)NCc3ncc(C)[nH]3)c(C)c2c1 | inconclusive: 70.8 µM [inhibitor, single point] | –
CC(C)CC(=O)N1CCN(Cc2ccc(Cl)cc2)CC1 | inconclusive: 89.1 µM [inhibitor, single point] | –
COc1ccc(S(=O)(=O)N(CC(=O)N/N=C/c2cccs2)c2cc(C)cc(C)c2)cc1OC | – | inactive: 1.68%
Oc1cc2ccccc2cc1-c1n[nH]c(=S)n1Cc1ccco1 | inconclusive: 44.7 µM [inhibitor, partial curve] | –
CCOC(=O)CSc1nc2ccc(NC(=O)COc3ccc(F)cc3)cc2s1 | – | inactive: 0.51%
O=C(c1cccc(Cl)c1)N1CCN(C2CCCCC2)CC1 | inconclusive: 79.4 µM [inhibitor, single point] | –
CC(=O)C1=C(O)C(=O)N(CCCO)C1c1ccccc1 (configuration not stated) | inconclusive: 89.1 µM [inhibitor, single point] | –
CCOc1ccc(C(=O)OCc2cc(=O)n3nc(C4CC4)sc3n2)cc1 | – | inactive: -6.22%
Cc1cccc(C(C(=O)NCc2ccc(F)cc2)N(C(=O)c2csnn2)C2CC2)c1 (configuration not stated) | – | inactive: -0.131%
O=C(NC(=S)Nc1ccc(N2CCOCC2)cc1)c1cccc(Cl)c1Cl | inconclusive: 22.4 µM [inhibitor, single point] | –
COc1ccc(NC(=O)CN(C)CC(=O)Nc2ccc3c(c2)CCC3)cc1 | – | inactive: -21.7%
COc1ccc2c(c1)CC/C(=C\Nc1ccc3c(c1)OCO3)C2=O | inconclusive: 89.1 µM [inhibitor, single point] | –
CCCN(CC(=O)Nc1cc(Cl)ccc1Cl)C(=O)/C=C/c1ccco1 | inconclusive: 50.1 µM [inhibitor, partial curve] | –
O=S(=O)(NC1c2cccc3cccc(c23)C1N1CCNCC1)c1ccc(Cl)cc1 (configuration not stated) | inconclusive: 89.1 µM [inhibitor, single point] | –
Cc1onc(-c2ccccc2Cl)c1C(=O)NCc1ccco1 | inconclusive: 50.1 µM [inhibitor, partial curve] | –

Compound | Potency | activity change, negative = inhibition
O=C(CN1CCCCC1)Nc1ccc(N2CCCCCC2)cc1 | active: 14.1 µM | –
Cc1ccc(C(=O)Nc2cccc(C(F)(F)F)c2)cc1NC(=O)c1nccn1C | inconclusive: 89.1 µM [inhibitor, single point] | –
Cc1ccccc1OCC(=O)Nc1ccc(-c2nc3cc(Cl)cc(Cl)c3o2)cc1 | inconclusive: 31.6 µM [inhibitor, single point] | –
COc1ccc(N2CCN(C(=O)CSc3nnc(C)c(=O)[nH]3)CC2)cc1 | inconclusive: 89.1 µM [inhibitor, single point] | –
COc1cccc(NC(=O)N(CCC(C)C)C2CCN(C(C)C)CC2)c1 | – | inactive: 0.64%
Cc1ccc(-c2csc(/C(C#N)=C/Nc3ccc4c(c3)OCCO4)n2)cc1 | – | inactive: -22.3%
O=C1Cc2cc([N+](=O)[O-])ccc2N1c1c(Cl)cccc1Cl | inconclusive: 79.4 µM [inhibitor, single point] | –
CCN(CC)CCCNC(=O)c1ccc(N2CCCCC2)c(NS(=O)(=O)c2ccc(C)cc2)c1 | inconclusive: 79.4 µM [inhibitor, single point] | –
Cc1nc(N)sc1C(=O)NN | inconclusive: 89.1 µM [inhibitor, single point] | –
O=C(CNCC1CCCO1)Nc1ccccc1N1CCCCCC1 (configuration not stated) | inconclusive: 31.6 µM [inhibitor, single point] | –
CC(C)Oc1ccc(C(=O)Nc2ccc3c(c2)n(C)c(=O)n3C)cc1 | inconclusive: 89.1 µM [inhibitor, single point] | –
Cc1ccc(Cn2c(SCC(=O)N/N=C/c3ccc(C)o3)nc3ccccc32)cc1 | inconclusive: 89.1 µM [inhibitor, single point] | –
COc1ccc(NC(=O)c2ncn(-c3ccccc3)n2)cc1Cl | – | inactive: -1.31%
CCOc1ccc(/C=C2/SC(=S)N(n3c(C)ccc3C)C2=O)cc1 | active: 11.2 µM | –
O=C1CN(CC(=O)Nc2ccc(SC(F)F)cc2)CCN1 | – | inactive: -4.12%
O=C(Nc1ccc([N+](=O)[O-])cc1)c1ccccc1F | – | inactive: -28.1%
CCC(Sc1nnc2c(n1)[nH]c1ccccc12)C(=O)Nc1ccccc1OC (configuration not stated) | – | inactive: -28.2%
OCCNc1ncnc2c1sc1nc(N3CCOCC3)c3c(c12)CCC3 | inconclusive: 70.8 µM [inhibitor, single point] | –
COc1ccc(NC(=S)NNc2ccc([N+](=O)[O-])cc2S(=O)(=O)Nc2ccc(C)cc2C)cc1 | active: 25.1 µM | –
O=c1[nH][nH]c(=O)c2c(NS(=O)(=O)c3ccccc3)cccc12 | – | inactive: -2.16%
COc1ccc(N2CCN(CCCNC(=O)c3cnn(-c4ccc(C)cc4)c3-n3cccc3)CC2)cc1 | inconclusive: 50.1 µM [inhibitor, partial curve] | –
O=C1C(=C(c2ccccc2)c2ccccc2)Nc2ccccc21 | active: 11.2 µM | –
Cc1cccc(-c2nc(CSCC(=O)N3CCN(c4ccccn4)CC3)c(C)o2)c1 | inconclusive: 89.1 µM [inhibitor, single point] | –
Cc1ccc(Nc2nc(N)nc(COC(=O)C3=COCCO3)n2)cc1 | – | inactive: -1.84%
